# Measurements: the supplement of paper PMC8728848
# The list shows a part of the results.
# B1: PX9937J-pdi-523-26-523 (Parabacteroides distasonis) (protein)
# chain: EPVSSISDANYWKSPDLFKAFNIGLHGLLRSQSSYNIFVLGEPRSDIYGDQPFGGEATQGVERFSYNTINAEFTGISNFANFYTTLNQINLMIRRTNETDLLGEAEKNYYLGQAYGLRAYIYFHLLRSWGDVIITTEPTLGSELDISHLDKAASPASEVMDLIKKDIDASEKAFGGDYSYKQGKCYWSKPATLMLKGEVYLWSGRQMGGGTGDYTVAKTALQDLQQNGNLKLQEKFTDVFSFNNKENSEMIFALHSGKEDDFMMWRDYNWRNNMVPQREYMAGYCDETGTPFLEIPGYNLQGLMRYQVKKDHYLKSFREGDTRLKGTLKAVYKKHEDGTLEYIAPIQYKFQGTTLEGSNERSWYDDYPIYRYADALLLLAEAKALLGEDPSTEINAVRERAYGSEYFNAHKNEVAYPNDKGSFYNDNPFEAGDENVMEAILKERLREFFFEGKRWYDLRRFGKDYVLKYTTAQESRLLWPINEGALTNNPALKQTPGY
# Legend:
# Experiment in all cases: glycan array binding signal (z-score within array); higher = stronger binding
# Conditions in all cases: glycan notation: IUPAC condensed, linker removed
# [1] = biological target: Fuc(a1-3)[Gal3S(b1-4)]GlcNAc6S
# Procedure, shortened: (§1)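 Glycan array data came from 3228 arrays in the Consortium for Functional Glycomics database, and only arrays with an available protein sequence were kept. Glycan names were put into IUPAC-condensed notation, and columns mapping to the same glycan were averaged. The binding signal is a within-array Z-score, averaged across arrays of one protein sequence run at different concentrations or buffers and across linkers. A negative Z-score can be read as non-binding.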
# [2] = biological target: Fuc(a1-3)[GalNAc(b1-4)]GlcNAc
# Procedure, shortened: as §1
# [3] = biological target: Fuc(a1-3)[GalNAc(b1-4)]GlcNAc6S
# Procedure, shortened: as §1
# Fuc(a1-4)GlcNAc = biological target: Fuc(a1-4)GlcNAc
# Procedure, shortened: as §1
# Fuc(b1-3)GlcNAc = biological target: Fuc(b1-3)GlcNAc
# Procedure, shortened: as §1
# Gal(a1-2)Gal = biological target: Gal(a1-2)Gal
# Procedure, shortened: as §1
# Gal(a1-3)Gal = biological target: Gal(a1-3)Gal
# Procedure, shortened: as §1
# Gal(a1-3)Gal(b1-3)GlcNAc = biological target: Gal(a1-3)Gal(b1-3)GlcNAc
# Procedure, shortened: as §1
# [4] = biological target: Gal(a1-3)Gal(b1-3)GlcNAc(b1-2)Man
# Procedure, shortened: as §1
# [5] = biological target: Gal(a1-3)Gal(b1-3)GlcNAc(b1-2)Man(a1-3)[Gal(a1-3)Gal(b1-3)GlcNAc(b1-2)Man(a1-6)]Man(b1-4)GlcNAc(b1-4)GlcNAc
# Procedure, shortened: as §1
# [6] = biological target: Gal(a1-3)Gal(b1-3)GlcNAc(b1-3)GalNAc
# Procedure, shortened: as §1
# [7] = biological target: Gal(a1-3)Gal(b1-3)GlcNAc(b1-6)GalNAc
# Procedure, shortened: as §1
# [8] = biological target: Gal(a1-3)Gal(b1-3)[Fuc(a1-4)]GlcNAc(b1-2)Man(a1-3)[Gal(a1-3)Gal(b1-3)[Fuc(a1-4)]GlcNAc(b1-2)Man(a1-6)]Man(b1-4)GlcNAc(b1-4)GlcNAc
# Procedure, shortened: as §1
# Gal(a1-3)Gal(b1-4)Glc = biological target: Gal(a1-3)Gal(b1-4)Glc
# Procedure, shortened: as §1
# Gal(a1-3)Gal(b1-4)GlcNAc = biological target: Gal(a1-3)Gal(b1-4)GlcNAc
# Procedure, shortened: as §1
# [9] = biological target: Gal(a1-3)Gal(b1-4)GlcNAc(b1-2)Man
# Procedure, shortened: as §1
# [10] = biological target: Gal(a1-3)Gal(b1-4)GlcNAc(b1-2)Man(a1-3)[Gal(a1-3)Gal(b1-4)GlcNAc(b1-2)Man(a1-6)]Man(b1-4)GlcNAc(b1-4)GlcNAc
# Procedure, shortened: as §1
# [11] = biological target: Gal(a1-3)Gal(b1-4)GlcNAc(b1-3)GalNAc
# Procedure, shortened: as §1
# [12] = biological target: Gal(a1-3)Gal(b1-4)GlcNAc(b1-6)GalNAc
# Procedure, shortened: as §1
# [13] = biological target: Gal(a1-3)Gal(b1-4)[Fuc(a1-3)]GlcNAc
# Procedure, shortened: as §1
# [14] = biological target: Gal(a1-3)Gal(b1-4)[Fuc(a1-3)]GlcNAc(b1-2)Man(a1-3)[Gal(a1-3)Gal(b1-4)[Fuc(a1-3)]GlcNAc(b1-2)Man(a1-6)]Man(b1-4)GlcNAc(b1-4)GlcNAc
# Procedure, shortened: as §1
# Gal(a1-3)GalNAc = biological target: Gal(a1-3)GalNAc
# Procedure, shortened: as §1
# [15] = biological target: Gal(a1-3)[Gal(a1-4)]Gal(b1-4)GlcNAc
# Procedure, shortened: as §1
# [16] = biological target: Gal(a1-4)Gal(b1-3)GlcNAc(b1-2)Man(a1-3)[Gal(a1-4)Gal(b1-3)GlcNAc(b1-2)Man(a1-6)]Man(b1-4)GlcNAc(b1-4)GlcNAc
# Procedure, shortened: as §1
# Gal(a1-4)Gal(b1-4)Glc = biological target: Gal(a1-4)Gal(b1-4)Glc
# Procedure, shortened: as §1
# Gal(a1-4)Gal(b1-4)GlcNAc = biological target: Gal(a1-4)Gal(b1-4)GlcNAc
# Procedure, shortened: as §1
# [17] = biological target: Gal(a1-4)Gal(b1-4)GlcNAc(b1-2)Man(a1-3)[Gal(a1-4)Gal(b1-4)GlcNAc(b1-2)Man(a1-6)]Man(b1-4)GlcNAc(b1-4)GlcNAc
# Procedure, shortened: as §1
# [18] = biological target: Gal(a1-4)Gal(b1-4)GlcNAc(b1-3)Gal(b1-4)Glc
# Procedure, shortened: as §1
# Gal(a1-4)GlcNAc = biological target: Gal(a1-4)GlcNAc
# Procedure, shortened: as §1
# Gal(a1-6)Glc = biological target: Gal(a1-6)Glc
# Procedure, shortened: as §1
# Gal(b1-2)Gal = biological target: Gal(b1-2)Gal
# Procedure, shortened: as §1
# Gal(b1-3)Gal = biological target: Gal(b1-3)Gal
# Procedure, shortened: as §1
# Gal(b1-3)Gal(b1-4)GlcNAc = biological target: Gal(b1-3)Gal(b1-4)GlcNAc
# Procedure, shortened: as §1
# Gal(b1-3)GalNAc = biological target: Gal(b1-3)GalNAc
# Procedure, shortened: as §1
# [19] = biological target: Gal(b1-3)GalNAc(a1-3)[Fuc(a1-2)]Gal(b1-4)Glc
# Procedure, shortened: as §1
# [20] = biological target: Gal(b1-3)GalNAc(a1-3)[Fuc(a1-2)]Gal(b1-4)GlcNAc
# Procedure, shortened: as §1
# Gal(b1-3)GalNAc(b1-3)Gal = biological target: Gal(b1-3)GalNAc(b1-3)Gal
# Procedure, shortened: as §1
binder,measurement,setting,value
B1,glycan array binding signal (z-score),[1],-0.203
same,glycan array binding signal (z-score),[2],0.207
same,glycan array binding signal (z-score),[3],0.629
same,glycan array binding signal (z-score),Fuc(a1-4)GlcNAc,-0.247
same,glycan array binding signal (z-score),Fuc(b1-3)GlcNAc,0.101
same,glycan array binding signal (z-score),Gal(a1-2)Gal,-0.363
same,glycan array binding signal (z-score),Gal(a1-3)Gal,-0.318
same,glycan array binding signal (z-score),Gal(a1-3)Gal(b1-3)GlcNAc,-0.039
same,glycan array binding signal (z-score),[4],-0.414
same,glycan array binding signal (z-score),[5],0.98
same,glycan array binding signal (z-score),[6],-0.115
same,glycan array binding signal (z-score),[7],-0.482
same,glycan array binding signal (z-score),[8],-0.273
same,glycan array binding signal (z-score),Gal(a1-3)Gal(b1-4)Glc,1.7
same,glycan array binding signal (z-score),Gal(a1-3)Gal(b1-4)GlcNAc,-0.594
same,glycan array binding signal (z-score),[9],-0.485
same,glycan array binding signal (z-score),[10],0.332
same,glycan array binding signal (z-score),[11],0.255
same,glycan array binding signal (z-score),[12],-0.49
same,glycan array binding signal (z-score),[13],-0.333
same,glycan array binding signal (z-score),[14],-0.105
same,glycan array binding signal (z-score),Gal(a1-3)GalNAc,-0.647
same,glycan array binding signal (z-score),[15],1.62
same,glycan array binding signal (z-score),[16],1.16
same,glycan array binding signal (z-score),Gal(a1-4)Gal(b1-4)Glc,0.596
same,glycan array binding signal (z-score),Gal(a1-4)Gal(b1-4)GlcNAc,0.111
same,glycan array binding signal (z-score),[17],2.9
same,glycan array binding signal (z-score),[18],-0.512
same,glycan array binding signal (z-score),Gal(a1-4)GlcNAc,-0.673
same,glycan array binding signal (z-score),Gal(a1-6)Glc,-0.309
same,glycan array binding signal (z-score),Gal(b1-2)Gal,0.192
same,glycan array binding signal (z-score),Gal(b1-3)Gal,0.291
same,glycan array binding signal (z-score),Gal(b1-3)Gal(b1-4)GlcNAc,-0.526
same,glycan array binding signal (z-score),Gal(b1-3)GalNAc,-0.346
same,glycan array binding signal (z-score),[19],0.248
same,glycan array binding signal (z-score),[20],0.105
same,glycan array binding signal (z-score),Gal(b1-3)GalNAc(b1-3)Gal,-0.459
